Assay results reported in PubChem BioAssay AID1347165 (National Center for Advancing Translational Sciences (NCATS), 2019).
Among all 220,000 compounds or so, about 5,700 (2.6%) were called active. The inconclusive results got no clear call from the source; some entries with a clear call stand among them for comparison. Calls come from the whole dose curve; as a rule, active = well fitted inhibition curve with a large enough effect; inconclusive = small, poorly fitted or top-dose-only effect; inactive = no such curve, though single readings can be large or run the other way. A potency beside an inconclusive call is a rough fit, not a confirmed value.

What follows are compounds tested against Lysine-specific demethylase 5B (Homo sapiens) (UniProt Q9UGL1) (assay: Primary screen for KDM5B Histone Demethylases FDH-coupled qHTS). Conditions: FDH-coupled NADH fluorescence (FDH is formaldehyde dehydrogenase); activity change, negative = inhibition: at 57.7 µM (top of the series) unless noted.
Sequence of UniProt Q9UGL1 (Q9UGL1 whole entry, looked up): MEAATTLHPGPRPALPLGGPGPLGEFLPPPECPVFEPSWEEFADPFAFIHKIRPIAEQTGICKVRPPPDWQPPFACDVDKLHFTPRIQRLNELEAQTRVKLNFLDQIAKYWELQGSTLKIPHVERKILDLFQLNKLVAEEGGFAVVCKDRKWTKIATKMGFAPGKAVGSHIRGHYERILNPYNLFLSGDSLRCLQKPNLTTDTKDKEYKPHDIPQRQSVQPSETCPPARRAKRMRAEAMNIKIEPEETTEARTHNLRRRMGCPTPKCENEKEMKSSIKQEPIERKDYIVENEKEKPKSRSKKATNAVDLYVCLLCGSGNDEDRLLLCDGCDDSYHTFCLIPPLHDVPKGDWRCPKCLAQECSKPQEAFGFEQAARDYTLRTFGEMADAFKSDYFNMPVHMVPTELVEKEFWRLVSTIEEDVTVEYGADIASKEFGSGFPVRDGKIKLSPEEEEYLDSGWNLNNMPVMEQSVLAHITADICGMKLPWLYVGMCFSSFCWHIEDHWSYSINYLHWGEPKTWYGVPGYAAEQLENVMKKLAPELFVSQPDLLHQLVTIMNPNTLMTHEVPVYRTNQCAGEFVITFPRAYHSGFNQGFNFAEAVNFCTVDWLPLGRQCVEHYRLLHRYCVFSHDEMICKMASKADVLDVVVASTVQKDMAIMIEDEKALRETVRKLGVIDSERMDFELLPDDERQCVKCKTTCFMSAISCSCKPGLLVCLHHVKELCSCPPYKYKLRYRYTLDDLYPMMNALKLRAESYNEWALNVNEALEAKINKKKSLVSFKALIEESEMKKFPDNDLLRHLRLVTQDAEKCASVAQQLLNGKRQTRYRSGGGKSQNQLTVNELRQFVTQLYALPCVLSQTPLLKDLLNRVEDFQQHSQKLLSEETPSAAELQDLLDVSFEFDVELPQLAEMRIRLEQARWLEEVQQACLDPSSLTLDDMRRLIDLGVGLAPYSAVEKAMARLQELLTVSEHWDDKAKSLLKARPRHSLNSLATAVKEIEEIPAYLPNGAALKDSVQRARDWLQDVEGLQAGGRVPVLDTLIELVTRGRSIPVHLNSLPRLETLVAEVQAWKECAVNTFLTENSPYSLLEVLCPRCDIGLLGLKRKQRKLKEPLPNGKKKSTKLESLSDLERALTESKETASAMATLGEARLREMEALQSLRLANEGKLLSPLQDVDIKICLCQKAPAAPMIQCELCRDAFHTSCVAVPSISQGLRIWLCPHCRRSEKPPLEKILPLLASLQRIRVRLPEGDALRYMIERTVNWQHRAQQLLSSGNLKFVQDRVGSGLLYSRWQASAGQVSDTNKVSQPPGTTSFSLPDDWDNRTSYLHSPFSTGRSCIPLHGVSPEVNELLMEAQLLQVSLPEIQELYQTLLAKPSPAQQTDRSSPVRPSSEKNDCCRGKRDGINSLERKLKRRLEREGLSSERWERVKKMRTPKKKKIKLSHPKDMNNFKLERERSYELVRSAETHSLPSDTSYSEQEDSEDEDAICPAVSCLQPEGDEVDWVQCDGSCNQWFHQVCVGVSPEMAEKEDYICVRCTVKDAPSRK
In short: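 KDM5BΔAP (200 nM final) in 50 mM HEPES pH 7.5, 0.01% Tween-20 was preincubated 10 min at RT with compound over a concentration range. Substrate mix (H3K4me3 12.5 µM, α-KG 25 µM, Fe²⁺, ascorbate, NAD⁺, FDH) was added, and NADH fluorescence change over 30 min gave dose-response curves.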
Note: nearly all actives have a fitted effect of over 70% in size.
Potency is the fitted concentration of half-maximal effect; tags give direction and shape of the fitted curve.
Throughout, for activity change, negative = inhibition: 0% is about no effect.

SMILES	Potency	activity change, negative = inhibition
CN(CCCNC1CCC2(CCNCC2)CC1)c1ccccc1	inconclusive: 17.8 µM [inhibitor, partial curve, poor fit]	
COc1cccc(CNC(=O)c2ccc3nc(-c4ccccc4)c(-c4ccccc4)nc3c2)c1OC	inconclusive: 12.6 µM [inhibitor, partial curve, poor fit]	
CC(C)n1nc(C(=O)Nc2cccc(S(=O)(=O)NC3=NCCC3)c2)c2ccccc2c1=O	inactive	
CC(C)(C)c1nc(C(=O)N2CCOCC2)n2ccccc12	active: 100 µM	
Cc1ccc(C(=O)N2CCN(c3nnc4ccccn34)CC2)cc1C	active: 25.1 µM	
CCCN(C)C(=O)CCC[C@H]1NC[C@@H]2C[C@H]1CN(Cc1ccccc1)C2	inconclusive: 15.8 µM [inhibitor, partial curve]	
Cc1ccccc1OCC(=O)Nc1ccc(C(=O)OCc2cc(=O)n3ccsc3n2)cc1	inconclusive: 14.1 µM [inhibitor, partial curve, poor fit]	
Cc1ccccc1NC(=O)c1nc(S(C)(=O)=O)ncc1N(Cc1ccco1)Cc1sccc1C	inconclusive: 14.1 µM [inhibitor, partial curve, poor fit]	
CCc1ccc(/C=C2/SC(N3CCOCC3)=NC2=O)cc1	inconclusive: 22.4 µM [inhibitor, single point]	
Cc1c(O)ccc2c(CN3CCN(c4ccc(F)cc4)CC3)cc(=O)oc12	inconclusive: 2 µM [inhibitor, full curve, poor fit]	
Cc1ccc(CNc2nc3ccccc3nc2NS(=O)(=O)c2cccs2)cc1	inconclusive: 15.8 µM [inhibitor, partial curve, poor fit]	
COc1ccc(CC(=O)NC2CCCN(c3cc(-c4ccc(OC)cc4)[nH]n3)C2)cc1 (stereo not drawn)	inconclusive: 15.8 µM [inhibitor, partial curve, poor fit]	
CC1(COc2ccccc2)COc2ccc(C(=O)NCCc3ccccc3)cc2N1 (stereo not drawn)	inconclusive: 39.8 µM [inhibitor, partial curve, poor fit]	
COc1ccc(-c2noc([C@@H]3C[C@H](NS(=O)(=O)c4ccc5ccccc5c4)CN3C)n2)cc1	inconclusive: 35.5 µM [inhibitor, partial curve]	
COc1ccc(-c2nc3cc(C)ccc3cc2CN2CCC[C@@H]2C(N)=O)cc1OC	inconclusive: 25.1 µM [inhibitor, single point]	
CN1CC(=O)N(c2ccccc2F)Cc2c(NCC(C)(C)C)ncnc21	inactive	
Cc1cccc(C2Nc3cccc4cccc(c34)N2)c1	inconclusive: 22.4 µM [inhibitor, single point]	
Cc1ccc(C)c(-c2cc3c(=O)n(CCNC(=O)c4cccc(F)c4)ccn3n2)c1	inconclusive: 22.4 µM [inhibitor, partial curve]	
CCn1c(=O)c2ccnn2c2ccc(C(=O)NCc3ccc(OC)cc3OC)cc21	inconclusive: 28.2 µM [inhibitor, single point]	
Cc1cccc(CS(=O)Cc2cccc(C(F)(F)F)c2)c1 (stereo not drawn)	inactive	
COc1ccc2c(CNCCc3cccs3)c(C(=O)O)n(Cc3ccccc3)c2c1	inconclusive: 25.1 µM [inhibitor, partial curve, poor fit]	

SMILES	Potency	activity change, negative = inhibition
COc1ccc(CN2CCN(C(=O)c3cc4ccc(OC)cc4nc3C)CC2)cc1	inconclusive: 25.1 µM [inhibitor, single point]	
CCOc1ccc(CCNC(=O)c2cc3c(=O)[nH]c4ccc(C)cc4c3s2)cc1OCC	inconclusive: 17.8 µM [inhibitor, partial curve, poor fit]	
CCCS(=O)(=O)c1c(Nc2ccccc2C)sc(C(=O)c2ccccc2)c1N	inconclusive: 31.6 µM [inhibitor, partial curve, poor fit]	
CCCCC(=O)Nc1oc2c(C)cccc2c(=O)c1-c1ccccc1	inactive	
Fc1ccccc1-c1noc(-c2nc(-c3cnccn3)no2)n1	inactive	
CN(C)C(C(=O)N1CCN(c2ncccc2C#N)CC1)c1cccc(F)c1 (stereo not drawn)	inconclusive: 31.6 µM [inhibitor, partial curve, poor fit]	
COc1ccc(NC(=O)[C@@H]2C[C@@H](c3ccc(F)cc3)N(CCOc3ccccc3)C2)cn1	inconclusive: 31.6 µM [inhibitor, partial curve]	
COc1ccccc1CN1CC[C@@H]2OCC(=O)N(Cc3c[nH]c4ccccc34)[C@H]2CC1	inconclusive: 12.6 µM [inhibitor, partial curve, poor fit]	
O=c1c(Cl)c(Oc2cccc(OCC(F)(F)F)c2)cnn1-c1ccc(C(F)(F)F)cn1	inactive	
COc1ccc(OC)c(CN2CCCn3nc(C)c(-c4ccccc4C(C)C)c32)c1	inconclusive: 28.2 µM [inhibitor, partial curve]	
O=C(Nc1oc2ccccc2c(=O)c1-c1ccc2c(c1)OCO2)C1CCCCC1	inactive	
Cc1ccc(CNC(=O)c2cc(Cl)cc(Cl)c2)n1C	inconclusive: 20 µM [inhibitor, partial curve, poor fit]	
Cc1cc(C)c(CNC(=O)c2nc(-c3ccccc3C#N)cc3c2ccn3C(C)C)c(=O)[nH]1	inactive	
CCCN(Cc1ccc(OCC)c(OCC)c1)C(=O)c1cc2ccccc2oc1=O	inactive	
CCn1c(=O)n(CC)c2cc(N3CCCCC3)c(NC(=O)Nc3ccccc3Cl)cc21	inconclusive: 22.4 µM [inhibitor, single point]	
COc1ccc2[nH]c3c(c2c1)CCNC31CCN(C(=O)Cn2c(=O)oc3ccccc32)CC1	active: 20 µM	
CC(C)Cn1nc(C(=O)Nc2nc3c(s2)CN(C)CC3)c2ccccc2c1=O	inactive	
CCC(=O)Nc1nc(C)c(-c2csc(Nc3ccccc3OC)n2)s1	inconclusive: 22.4 µM [inhibitor, single point]	
CN1CCCCCC(O)c2cc(C(=O)NCCc3c[nH]c4ccccc34)ccc21 (stereo not drawn)	inconclusive: 28.2 µM [inhibitor, single point]	
O=C1NCCCCCCN(Cc2ccncc2)[C@@H]2CN(Cc3ccccn3)CC[C@@H]12	inconclusive: 20 µM [inhibitor, partial curve, poor fit]	
CC(C)c1noc(-c2cccn3c(CNC(=O)CCC4CCCC4)nnc23)n1	active: 15.8 µM	

SMILES	Potency	activity change, negative = inhibition
CCC(C)NC(=O)Cn1c(=O)cc(-c2ccccc2)c2c(C)nn(C)c21 (stereo not drawn)	inconclusive: 35.5 µM [inhibitor, partial curve, poor fit]	
CCOC(=O)c1ccc(N2CCN(CC)CC2)c(NC(=O)CSc2ccc(Cl)cc2)c1	inconclusive: 39.8 µM [inhibitor, single point]	
CCOC(=O)c1oc2c(c1C)-c1nn(Cc3ccc(Cl)cc3)cc1CC2	inconclusive: 31.6 µM [inhibitor, partial curve, poor fit]	
CN1CC2(CCCN(CC3CC3)C2)c2cc(C(=O)NCCc3ccccn3)ccc21 (stereo not drawn)	active: 39.8 µM	
CC(C)c1ccc(NC(=O)N2CCc3[nH]c4ccc(F)cc4c3C2)cc1	inconclusive: 14.1 µM [inhibitor, partial curve, poor fit]	
COc1ccccc1NS(=O)(=O)c1cc(NC(=O)C2=NNC(=O)CC2)ccc1C	inconclusive: 25.1 µM [inhibitor, partial curve, poor fit]	
COc1ccccc1CC(=O)NCc1nnc2ccc(-c3ccc(C)cc3)nn12	inconclusive: 31.6 µM [inhibitor, single point]	
COCCN1CCCCCC(O)c2cc(C(=O)N(C)Cc3cccnc3)ccc21 (stereo not drawn)	inactive	
COCC(=O)N1CCN(c2oc(-c3ccc(C)cc3)nc2S(=O)(=O)c2ccc(F)cc2)CC1	inconclusive: 39.8 µM [inhibitor, single point]	
COc1cccc(N2CCN(S(=O)(=O)c3ccc4[nH]c5c(c4c3)CCCC5)CC2)c1	inconclusive: 35.5 µM [inhibitor, single point]	
CS(=O)(=O)Cc1ccc(C(=O)OCc2ccc(C#N)cc2F)cc1	inactive	
Cc1nn(-c2cccc(Br)c2)c(C)c1[C@@H]1C=C[C@@H](NS(=O)(=O)c2ccccc2)C1	inconclusive: 22.4 µM [inhibitor, partial curve, poor fit]	
Cc1ccc(N/N=C/c2ccc(C#N)cc2)cc1	inconclusive: 28.2 µM [inhibitor, partial curve, poor fit]	
COc1cccc(CNC(=O)c2ncoc2-c2cccc(Cl)c2)c1	inconclusive: 39.8 µM [inhibitor, single point]	
Cc1cccc(NC(=O)c2c(NC(=O)C(F)(F)F)sc3c2CCCCC3)c1	inconclusive: 22.4 µM [inhibitor, single point]	
O=C1CC(c2ccccc2)Cc2[nH]c(=O)c(C(=O)Nc3cccc(F)c3)cc21 (stereo not drawn)	inconclusive: 17.8 µM [inhibitor, partial curve, poor fit]	
CC(C)NC(=O)N1Cc2[nH]cnc2C[C@H]1c1nc(-c2ccccc2)no1	inconclusive: 25.1 µM [inhibitor, partial curve, poor fit]	
Cc1cccc(N(C)C(=O)c2cc(S(=O)(=O)N3CCCC3)cn2C)c1		inconclusive: -35.6% [inhibitor]
COC(=O)c1ccccc1NC(=O)NCCc1c(C)nn(C)c1C	inconclusive: 11.2 µM [inhibitor, partial curve, poor fit]	
Cc1ccc(-n2ncc3c2ncn2nc(-c4cccs4)nc32)c(C)c1	inactive	
Cc1c(CC(=O)Nc2ccc3c(c2)OCO3)c(=O)oc2c(C)c(O)ccc12	inconclusive: 25.1 µM [inhibitor, partial curve, poor fit]	
